Assay results reported in paper PMC10360995, “Discovery of 3-((3-amino-1H-indazol-4-yl)ethynyl)-N-(4-((4-ethylpiperazin-1-yl)methyl)-3-(trifluoromethyl)phenyl)benzamide (AKE-72), a potent Pan-BCR-ABL inhibitor including the T315I gatekeeper resistant mutant” (Journal of Enzyme Inhibition and Medicinal Chemistry, 2023).

Experiments:
[1] = test system: Ba/F3 cells expressing native BCR-ABL; test: Cellular proliferation assay; type: cell-based; settings: Mus musculus, BaF3, read-out: GI50 Ba/F3 (Bcr-Abl)
Source text: (§1) We also tested AKE-72 against BCR-ABL-positive and BCR-ABL-negative cell lines.
(§2) 1.8. Cytochrome P450 Assay
(§3) The binding site was defined based

[2] = test system: normal RAW264.7 macrophage cells; test: Cellular proliferation assay; type: cell-based; settings: Mus musculus, average of three independent experiments ± SD
Source text: as §1, §2, §3

SMILES	GI50 [1]	GI50 [2]
CCN1CCN(Cc2ccc(NC(=O)c3cccc(C#Cc4cccc5[nH]nc(N)c45)c3)cc2C(F)(F)F)CC1 [Compound 5, 3-((3-amino-1H-indazol-4-yl)ethynyl)-N-(4-((4-ethylpiperazin-1-yl)methyl)-3-(trifluoromethyl)phenyl)benzamide]	9.6 ± 2 nM	6980 ± 402 nM
Cc1ccc(C(=O)Nc2ccc(CN3CCN(C)CC3)c(C(F)(F)F)c2)cc1C#Cc1cnc2cccnn12 [Ponatinib, reference compound]		2880 ± 153 nM
